Results taken from the supplement of paper PMC3334620.
The full ranking holds about 33,000 sequences; the median of “E-score (-0.5 to 0.5)” is about -0.011, and the highest 2% start at about 0.28. The list shows a part of the results.

Molecular target: T1, Gcr1 (UniProt P07261)
T1 sequence: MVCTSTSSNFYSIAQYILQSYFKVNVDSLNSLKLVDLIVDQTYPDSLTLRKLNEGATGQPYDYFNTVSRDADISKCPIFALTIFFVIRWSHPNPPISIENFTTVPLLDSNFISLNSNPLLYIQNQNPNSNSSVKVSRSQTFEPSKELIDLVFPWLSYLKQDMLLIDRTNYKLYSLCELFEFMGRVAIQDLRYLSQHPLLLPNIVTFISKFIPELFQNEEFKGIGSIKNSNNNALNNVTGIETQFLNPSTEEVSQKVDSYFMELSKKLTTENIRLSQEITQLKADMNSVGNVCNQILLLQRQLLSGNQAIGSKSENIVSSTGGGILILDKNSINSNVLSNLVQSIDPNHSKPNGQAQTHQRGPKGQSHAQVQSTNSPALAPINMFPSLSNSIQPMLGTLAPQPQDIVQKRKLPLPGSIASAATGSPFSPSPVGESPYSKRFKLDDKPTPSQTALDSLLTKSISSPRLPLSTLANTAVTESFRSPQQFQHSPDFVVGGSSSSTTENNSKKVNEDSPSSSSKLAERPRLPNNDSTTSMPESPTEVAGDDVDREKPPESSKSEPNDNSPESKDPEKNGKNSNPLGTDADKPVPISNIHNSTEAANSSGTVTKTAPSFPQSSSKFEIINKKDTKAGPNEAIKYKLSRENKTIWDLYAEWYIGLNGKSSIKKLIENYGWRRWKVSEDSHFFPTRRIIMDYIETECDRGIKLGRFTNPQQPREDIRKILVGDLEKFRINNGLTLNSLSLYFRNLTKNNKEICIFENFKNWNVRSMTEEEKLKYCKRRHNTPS
Assay: PBM E-score (8-mer binding enrichment) (E-score (-0.5 to 0.5)); higher = stronger / more preferred TF binding; most listed sequences are background and not binding sites
Details: protein concentration: 100 nM; construct: GST-full length
How it was run: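 For each ungapped eight-base word taken together with its reverse complement, the Universal PBM Analysis Suite assigned an E-score. Binding data came from GST-tagged yeast transcription factors, applied at about 100-200 nM, on universal all-10-mer Agilent arrays made double-stranded by primer extension. Fluorescent anti-GST marked bound protein, and scans were normalised with masliner.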

Sequence | PBM E-score
CGCCTATC | -0.14
ATGTCCTC | -0.212
CATTGGTA | 0.0202
GGGTCGCA | -0.0317
ACCATGCG | 0.0398
ATCGCCAA | -0.0723
GCTATGCC | -0.183
CCCTGCTA | -0.188
TCTATCAA | -0.11
AGAGAATG | -0.0661
AATAAAGT | 0.157
CTCACACC | -0.275
CGTGTGGC | -0.151
AGTCATGG | -0.0153
ACTACCAG | 0.0768
CGTAAGGC | -0.193
CGTTCGCC | -0.12
CAGGGGAA | 0.0542
CTAGTTTC | 0.142
GAACCGCC | 0.0437
TCCCCGGA | 0.081
CCATAAAG | 0.134
AGACGCAT | 0.231
ATCTTGCC | -0.0924
GGATACAC | 0.148

Sequence | PBM E-score
CACAATCA | -0.141
ATCCGCAC | 0.101
TCCTCGAA | -0.0343
GAAAATTC | -0.0468
ACCTCGGC | 0.00104
ACAGTGCC | -0.247
GACTTAGC | -0.179
ACTTGTAG | 0.19
AGGCGTAC | -0.0119
ACGGAGCC | 0.198
CCTAATGC | -0.122
AACGGACA | 0.0246
TAATACTA | 0.0608
ACTGACTG | -0.168
ACCCGAAT | 0.194
CGCACTCC | 0.0372
AATTTTTC | 0.109
CTGATAAC | 0.074
ATCTAAAA | 0.0809
ATCCTCAC | 0.1
ATTGAAGA | 0.0516
ACAGTCCT | -0.141
AAACCTCG | -0.0915
AGCGCGCG | -0.0226
AATTCACT | 0.0221

Sequence | PBM E-score
ACAACCGA | -0.269
CGACCGTC | -0.41
CAGACATG | 0.00439
AGCTACCC | 0.00012
ATTATGCC | -0.127
TGGAATAA | -0.0597
ATAGGAGG | 0.0574
GCTCGCTA | -0.34
AGTACCAT | 0.00754
AGTGAGAA | 0.0641
CGTGTAAC | 0.0763
ATCCCTCC | -0.11
GACGAAGA | -0.156
ATAATTGA | 0.112
TAGCTTGA | -0.0368
CCCTCGCG | -0.124
TAGTGCGA | -0.00966
CTGAGGGC | -0.111
ATAAATAT | 0.131
TTACCCAA | -0.0605
ACCACACT | -0.00168
CGGTATCC | 0.282
GCGGCCAC | 0.161
CTACACCC | -0.0515
CGGTCGCC | 0.0526

Sequence | PBM E-score
CGCACGGA | -0.0217
GAGATTAC | -0.19
TCGCACCA | 0.0244
GAAGTAAC | -0.144
TGCCATAA | -0.09
CGGGGAAA | 0.0901
CACTTACC | -0.064
AGTAGAAA | 0.162
CCTGTGCG | -0.0938
CAACTTAA | -0.0113
CGATGTTA | -0.049
AGGTTTAT | -0.00858
GTGTGATA | -0.0525
GTGCAACA | -0.163
TACCCTAA | 0.0283
CAATGTGC | 0.00539
GATATGCA | -0.137
ACGGATCC | 0.117
ATGATCGA | -0.102
AAGATGGC | -0.168
AATTCACC | -0.031
GATATCCC | -0.00544
GCGACATA | 0.087
AGGGTACC | 0.0354
AAGGAGCG | -0.201

Sequence | PBM E-score
GTCTGGAA | 0.189
GACGTTAC | -0.0517
ATCCCTTA | -0.00764
TCTTCAAA | 0.154
ATCTGTCG | -0.0584
CCATGCTA | -0.0974
CATGTTGA | 0.0164
GCCGTCTA | -0.0242
AGATTGAT | -0.0159
GCATAGTA | 0.0271
AAGACGTG | 0.0318
CTCAGTTC | -0.182
AGGCACGG | -0.0862
GCCTACCA | -0.0627
ATAATGAG | 0.0333
CACACCTG | -0.085
AAACTGAT | 0.0967
AACCAGTA | 0.315
TACACACA | -0.14
CTAACAAA | -0.0621
GTGCATGA | -0.194
CTCATCGC | -0.185
CGTCGATC | -0.0914
ACCATAGA | -0.0141
GCTAACAA | -0.138

Sequence | PBM E-score
GGCGTGCA | -0.161
GTAACAAC | 0.179
AAGTCTTA | -0.144
AGATTACA | -0.271
GCTAAACC | -0.164
GAATCGTA | -0.0293
AGCTTTAA | 0.0602
GAGAGCAA | -0.0939
GGTCAACC | -0.151
CCTCAGCC | -0.246
AGTTATAC | -0.0347
ACCGAGAC | -0.132
CTCGTCAA | -0.0346
CTGTCCCA | -0.0382
GAGCCGCC | 0.248
GTTCGCGA | 0.19
ACTAAGAC | 0.052
CCCTCCGG | -0.0226
GGCCGAAC | -0.111
GCTTCAAC | 0.093
CGTCGAAA | 0.115
GCATGTCA | -0.249
ATACGCCA | -0.00959
CGGCGGGA | -0.152
AAGGAATA | -0.159

Sequence | PBM E-score
CACGCCCA | -0.107
AGAGGAGG | 0.0786
CCCACATC | 0.0685
CAACCGTG | -0.245
ACGAGTAC | -0.0478
GAGGTGAA | 0.00039
TCGTATAA | 0.286
CCAAAGAG | 0.0586
AATTTTGG | 0.287
AAATAACC | -0.075
GGCAAAAA | 0.077
AAAACGCG | 0.117
AGTCGTCA | -0.00654
CTAGCTTC | 0.316
AACATTTG | 0.126
ACATCTCT | -0.157
GATTCGCC | 0.0655
CAGTTTCC | 0.159
GATCGTAC | 0.00975
AAGGTCCG | -0.154
CGCCAGTA | 0.155
CCCTACAA | 0.0817
